Measurements taken from PubChem BioAssay (NCI).
“And” between values parts separate entries of the source, which are not always exact repeats. Equal entries are not always repeated.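 All cell lines were grown in 96-well plates and treated with compound for 48 hours. GI50: concentration for 50% inhibition of growth. The concentration for full growth arrest is given as TGI.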

System: NCI-H322M lung
Experiment: DTP human tumour cell line panel, 48 h

Compound	TGI	GI50
CC(C)C[C@H](NC(=O)CCc1cccc2ccccc12)B(O)O	> 100 µM	–
CCCCSC1=N/C(=C\c2ccc(N(C)C)cc2)C(Cl)=N1	> 100 µM	–
CCOC(=O)/C=C/c1c[nH]c(=O)[nH]c1=O	> 75 µM	–
COc1cc2c(cc1OC)-c1ncc3cc(OC)c(OC)cc3c1C2	> 50 µM	> 50 µM
NS(=O)(=O)c1nnc(NC(=O)/C=C/C(=O)O)s1	> 100 µM	–
C[C@H]1[C@H](C)CC[C@]2(C(=O)OC3OC(CO)C(O)C(O)C3O)CC[C@]3(C)C(=CC[C@@H]4[C@@]5(C)C[C@@H](O)[C@@H]6OC(=O)c7cc(O)c(O)c(O)c7-c7c(cc(O)c(O)c7O)C(=O)OC[C@]6(CO)[C@@H]5CC[C@]43C)[C@H]12 (some centres not stated)	> 100 µM	–
Cc1ccccc1C[P+](c1ccccc1)(c1ccccc1)c1ccccc1	> 100 µM	7.22 µM
C=CCOC1OC(CS(=O)(=O)O)C(OC(C)=O)C(OC(C)=O)C1OC(C)=O (configuration not stated)	> 100 µM	–
CNC(=O)OCC1=C(COC(=O)NC)C(C)N(c2ccccc2)C1 (configuration not stated)	> 100 µM	–
O=C(NNC(=O)c1c(Cl)c(Cl)c(Cl)c(Cl)c1-c1nc2ccccc2[nH]1)c1ccc(Cl)cc1	> 100 µM	–
CC(C)Cc1ccc(C(C)/C=C2\CCC(CN3CCCCC3)C2=O)cc1 (configuration not stated)	27.7 µM	–
COC(=O)[C@]1(Cc2ccc3ccccc3c2)CCCCCCN1C(=O)c1ccccc1	> 61.5 µM	–
CCOC(OCC)[C@H](N)[C@@H](O)[C@@H](O)[C@H]1COC(C)(C)O1	> 100 µM	–
O=C1/C(=C\c2cccc(Oc3ccccc3)c2)SC(c2ccccc2)N1c1cccc(Cl)c1 (configuration not stated)	> 100 µM	–
C=COC(=O)N1C2CCCC(Cl)(C(C)=O)C1CC2 (configuration not stated)	> 100 µM	–
COc1cc2ccc3c4cc(OC)c(OC(C)C)cc4c[n+](C)c3c2cc1OC	> 100 µM	–
CCN(CC)CCC(=O)N1C/C(=C/c2ccccc2)C(=O)/C(=C\c2ccccc2)C1	16 µM	–
c1ccc(N2N=C3N(c4ccccc4)C2N3c2ccccc2)cc1	> 100 µM	–
S=C(S)N1CCN(c2ccccc2)CC1	> 100 µM	–
COc1ccc(C(=O)N(Cc2cccnc2)C(=S)N(Cc2cccnc2)C(=O)c2ccc(OC)cc2)cc1	> 100 µM	–
CCOC(=O)C1=C(C)N(C2OC(COC(C)=O)C(OC(C)=O)C(OC(C)=O)C2OC(C)=O)C(=O)NC1c1ccccc1 (configuration not stated)	> 100 µM	–
NC(Cc1ccc(O)cn1)C(=O)O (configuration not stated)	> 100 µM	–
NC(N)=NC(N)=Nc1ccc(S(N)(=O)=O)cc1	> 100 µM	–
CC(=Nc1ccccc1)C1=C(O)C(Cc2ccc(F)cc2)NC1=O (configuration not stated)	> 100 µM	3.34 µM

Compound	TGI	GI50
COc1ccc(NS(=O)(=O)c2ccc(N=C3C=C(Nc4ccc(S(=O)(=O)Nc5ccc(OC)nn5)cc4)C(=O)c4ccccc43)cc2)nn1	31.8 µM	–
COc1cc2c3c(c1OC)C(=O)C(=O)C1=C3N(CCC1)CC2	> 100 µM	–
COc1cc(C2SCC(=O)N2NC(=O)c2ccc(NC(C)=O)cc2OC)ccc1O (configuration not stated)	> 100 µM	–
C[C@]12CC/C(=N\O)C=C1CC[C@@H]1[C@@H]2CC[C@]2(C)C(=N/O)/C(=C/c3ccncc3)C[C@@H]12	77.1 µM	–
CCCCCCC(O)C(O)CCC(O)C1CCC(CCCCC(O)CC2=CC(C)OC2=O)O1 (configuration not stated)	52.2 µM	19.7 µM
CC(=O)OCc1nnn2c1CCC2	> 100 µM	–
CC1(C)Oc2ccccc2[N+]([O-])=C1c1ccccc1	> 100 µM	–
COc1c2occc2cc2ccc(=O)oc12	> 100 µM	–
Cc1ccc(N2C3=C(CC4=C2CC(C)(C)CC4=O)C(=O)CC(C)(C)C3)cc1	> 100 µM	–
COc1cc(C(=O)N(C(=S)OC23CC4CC(CC(C4)C2)C3)c2ccccc2)cc(OC)c1OC	> 100 µM	–
COC(=O)/C=C/c1cnc2c(c1)oc(=O)n2C	> 100 µM	–
O=c1oc2ccccc2n1CCCn1c(=O)oc2ccccc21	> 100 µM	–
C=CCN(c1cc(OC)c2c(c1[N+](=O)[O-])C(C)(SC)C(=O)N2)S(C)(=O)=O (configuration not stated)	> 100 µM	–
Cc1ccc(-n2c3c(c4c(CN)c(O)ccc42)CCc2ccccc2C3=O)cc1	30.7 µM	16.7 µM
COc1ccc(NC(=S)Nc2c(C)n(C)n(-c3ccccc3)c2=O)cc1	> 100 µM	–
Brc1ccc(C2CC3(c4ccccc4)ON=C(c4ccccc4)N3c3ccccc3S2)cc1 (configuration not stated)	> 100 µM	–
CCOC(=O)C(=O)C(/C(=N/N(C)C)C(=O)Nc1ccc(C)cc1C)c1nc2ccccc2[nH]c1=O (configuration not stated)	> 100 µM	–
CC(C)c1cc(C(=O)[O-])c(O)c(C(C)C)c1.CC(C)c1cc(C(=O)[O-])c(O)c(C(C)C)c1.CC(C)c1cc(C(=O)[O-])c(O)c(C(C)C)c1.CC(C)c1cc(C(=O)[O-])c(O)c(C(C)C)c1.CC(C)c1cc(C(=O)[O-])c(O)c(C(C)C)c1.CC(C)c1cc(C(=O)[O-])c(O)c(C(C)C)c1.[Cu+2].[Mn+2].[Mn+2]	49.2 µM	22.8 µM
COC1C(O)CC(OC2CC(OC3CC(O[C@@H]4C(=O)c5c(cc6cc(OC7CC(OC8CC(O)C(O)C(C)O8)C(O)C(C)O7)c(C)c(O)c6c5O)CC4[C@H](OC)[C@@H](O)C(C)=O)OC(C)C3O)OC(C)C2O)OC1C (some centres not stated)	> 33.3 µM	0.0194 µM
C=C(C)[C@@H]1CC[C@]2(CN)CC[C@]3(C)[C@H](CC[C@@H]4[C@@]5(C)CCC(N)[C@@](C)(CO)[C@@H]5CC[C@]43C)[C@@H]12 (some centres not stated)	3.2 µM	1.79 µM
C(/C=C/Nc1ccc(-c2ccccc2)cc1)=Nc1ccc(-c2ccccc2)cc1	> 100 µM	–
COc1ccc(S(=O)(=O)Nc2ccc(-c3csc(N4C(=O)/C(=C/c5cccs5)N=C4c4ccccc4)n3)cc2)cc1Cl	> 100 µM	–
N/C(=N\N=C\c1ccc(O)c(O)c1)NO	> 100 µM	–
C=C1C(=O)O[C@H]2[C@H]1CC/C(Cn1cc(-c3ccsc3)nn1)=C\CC[C@@]1(C)O[C@@H]21	22.7 µM	10.5 µM

Compound	TGI	GI50
CC(C)=CCc1c(O)c(C(=O)CC(C)C)c(O)c2c(-c3ccccc3)cc(=O)oc12	> 50 µM	10.6 µM
CCC(C)(C)NS(=O)(=O)c1ccccc1	> 100 µM	–
CSS(C)(=O)=O	> 100 µM	–
C/C=C(\C)C(=O)N1c2ccccc2CC1c1c(C)[nH]c2ccccc12 (configuration not stated)	> 100 µM	–
COc1ccc(Br)c(C=Nc2cccc3cc(OC)c(OC)cc23)c1	> 100 µM	–
C/C(=N\Nc1nc2ccccc2o1)c1cc2ccccc2cn1	14.7 µM	–
CCOC(=O)/C=C(/C(=O)OCC)n1ccc(=O)n(CC(=O)OCC)c1=O	25 µM	–
Clc1nc(-c2ccccc2)nc(Cl)c1Cl	27.4 µM	–
O=C1CN(c2ccccc2)C(=O)CN1CCN1CC(=O)N(c2ccccc2)CC1=O	> 100 µM	–
O=C(Nc1ccc(-n2ccc3c(NC(=O)c4ccccc4)nccc32)cc1)c1ccc(N2CCOCC2)c(C(F)(F)F)c1	> 51.6 µM	4.63 µM
Fc1cc2nc3n(c2cc1F)C(c1c(Cl)cccc1Cl)SC3 (configuration not stated)	35.3 µM	–
Cc1cc(=O)n2nc(CSc3n[nH]c(=S)s3)sc2n1	> 100 µM	–
COc1ccc(-c2cc(-c3ccc(Cl)cc3)nc(SCCCCCCC(=O)NO)n2)cc1	41.1 µM	1.78 µM
Cn1cc2ccccc2c1-c1nc(F)nc(Nc2ccc(N)cc2)n1	> 100 µM	–
O=C(CC1SC(=Nc2ccccc2Cl)NC1=O)Nc1ccc(Cl)cc1 (configuration not stated)	> 100 µM	–
C#CCN(Cc1nc2cc(C(F)(F)F)ccc2nc1-c1ccccc1)c1ccc(F)cc1	57.5 µM	17.1 µM
CC(c1ccccc1)C(O)S(=O)(=O)O (configuration not stated)	> 100 µM	–
S=C1SCN(C2CCCCCCCCCCC2)CN1C1CCCCCCCCCCC1	> 100 µM	–
C[C@@H]1OC(=O)NN=C1c1ccc(-c2ccc(F)cc2)c(C(F)(F)F)c1	28.5 µM	15 µM
CC1(C)/C(=N\Nc2ccc([N+](=O)[O-])cc2[N+](=O)[O-])C2CCC1C2 (configuration not stated)	> 100 µM	–
CC(C)(C)OC(=O)N1CCC(NC(=O)NC2CCN(C(=O)OC(C)(C)C)CC2)CC1	> 100 µM	–
COC(=O)C1SC[C@H]2C(=O)N(c3ccccc3)C(=O)N12 (some centres not stated)	> 100 µM	–
Fc1ccc2c(c1)cc1ccc3cccc4ccc2c1c34	> 100 µM	–
OC[C@@H](O)[C@H](O)[C@@H](O)/C=N/Nc1ccc(Cl)nn1	> 100 µM	–

Compound	TGI	GI50
CN1CCN(c2ccc(-c3cccc(CN4CCOCC4)c3)cc2NC(=O)c2c[nH]c(=O)cc2C(F)(F)F)CC1	> 100 µM	> 100 µM
CC1(C)OC2COC(c3[nH]nc4c(=O)[nH]c(=O)[nH]c34)C2O1 (configuration not stated)	> 100 µM	–
C[C@@]1(O)CCC[C@H]1n1c(=O)c(C(F)F)cc2cnc(NC3CCN(S(C)(=O)=O)CC3)nc21	8.9 µM	2.1 µM
CCCCN1CCC(O)(c2cc(C(=O)O)[nH]c2-c2cc(C)no2)C1=O (configuration not stated)	> 100 µM	–
COc1cccc(NC(=O)c2ccc(NC3=C(Cl)C(=O)N(Cc4ccccc4)C3=O)cc2)c1	67.3 µM	23.9 µM
COc1ccc(C[C@H]2NC[C@H](O)[C@H]2OC(C)=O)cc1	0.38 µM	–
COc1ccc2c(c1)OC1c3ccccc3OCC21 (configuration not stated)	> 100 µM	–
CCCC(=O)Nc1c(I)cc(I)c(CC(CC)C(=O)O)c1I (configuration not stated)	> 100 µM	> 100 µM
COc1cc(/C=C2\Cc3ccccc3C2=O)cc(OC)c1OC	> 100 µM	–
N.N.NCCCCCN.O=C([O-])CC(=O)[O-].O=C([O-])CC(=O)[O-].[Pt+4].[Pt+4]	> 100 µM	> 100 µM
COc1ccc2[nH]c3c(C)c4ncccc4c(C)c3c2c1	> 10 µM	–
C=CC(C)(C)n1cc(C2=C(O)C(=O)C(c3c(CC=C(C)C)[nH]c4ccccc34)=C(O)C2=O)c2ccccc21	12.7 µM	–
COc1ccc2c(c1)c(-c1ccc(-c3cn(C)c4ccc(OC)cc34)o1)cn2C	> 100 µM	> 100 µM
CCCCCC(=C/c1ccccc1)/C=N/N=C(N)N	2.9 µM	1.51 µM
Clc1ccc(COC(Cn2ccnc2)c2ccc(Cl)cc2Cl)c(Cl)c1 (configuration not stated)	26.1 µM and 22.5 µM	–
COC(=O)CCCNC(=O)C(=O)c1c(O)c(O)c(C(C)C)c2cc(C)c(-c3c(C)cc4c(C(C)C)c(O)c(O)c(C(=O)C(=O)NCCCC(=O)OC)c4c3O)c(O)c12	> 32.5 µM	0.704 µM
CCOc1cc(/C=C2\N=C(c3ccccc3)N(c3nc4ccccc4s3)C2=O)ccc1O	> 100 µM	–
CCN(CC)/[N+]([O-])=N/OCC(C)O (configuration not stated)	> 100 µM	–
CC(C)=CCC/C(C)=C/CC/C(C)=C/C1CCC(=O)C1(C)C (configuration not stated)	> 100 µM	–
CCCCn1c(C)c2c(c1C)C(=O)N(CCN1CCN(c3ccccc3Cl)CC1)C2=O	> 100 µM	–
O=C(COC(=O)c1cccc2c(=O)c3ccccc3[nH]c12)Nc1ccc(S(=O)(=O)Nc2ncccn2)cc1	> 100 µM	–
CN(C)c1c(C2CC(O)C(CO)O2)c(=O)c1=O (configuration not stated)	> 100 µM	–
C/C(=N\NS(=O)(=O)c1c(C)cc(C)cc1C)c1ccc[n+]([O-])n1	> 100 µM	–
